# Measurements as given in PubChem BioAssay (NCATS).
# Inconclusive results, whose numbers are uncertain, are shown with a selection of clear calls. For some of these results: No potency is given beside an inconclusive call; the fits are too rough. For some of these results: “Side channel” marks fits to a control or component signal instead of the main read-out. Calls of active or inactive are those of the source. Unless noted, the call rests on the fitted dose curve; in most records, active means well fitted curve in either direction with a large enough effect (not every such curve was filed as active); inconclusive means small, poorly fitted or top-dose-only effect, or another doubt; inactive means flat fitted curve, though single readings scatter.
# Key:
# [1] = AP1 Signaling Pathway (AID 357); details: ME-180 AP-1-bla reporter, EGF-induced, beta-lactamase ratio, 5 h; at 7.69 µM (top of the series) unless noted;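 further: ME-180 reporter cells stimulated with EGF at its EC50 level; top concentration of the series differs between compounds; on the % scale 0 is the no-effect control and ±100 the full control effect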
# Procedure, shortened: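 Beta-lactamase reporter under AP-1 response element, ME-180 background. Stimulus: EC50 EGF. Compound exposure 5 h, 37 °C. Detection: CCF4, 2.5 h RT, 460/530 nm. Values: AC50 from titration.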
# [2] = NFAT Signaling Pathway (AID 444); details: Jurkat NFAT-bla M1, carbachol, beta-lactamase ratio, 5 h; at 7.69 µM (top of the series) unless noted;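 further: carbachol stimulus at about its EC50 of 1 µM final; on the % scale 0 is the no-effect control and ±100 the full control effect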
# Procedure, shortened: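 Jurkat cells with NFAT-driven β-lactamase reporter and co-expressed M1 receptor, stimulated with carbachol (final 1 uM, ~EC50), compound titration, 5 h at 37 °C. CCF4 loaded 1 h at RT; 460/530 nm ratio gave %activity and AC50.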
# [3] = molecular target: 3',5'-cyclic-AMP phosphodiesterase 4B (Homo sapiens) (UniProt Q07343); test: qHTS Assay for Inhibitors of PDE-IV (AID 607; active means well fitted activation curve with a large enough effect in the main read-out, with a control signal flat, not every such curve was filed as active; inconclusive means small, poorly fitted or top-dose-only effect, or effect the other way, or a change in a side signal; further: potency means the concentration at half of the fitted maximal effect; on activation (PDE inhibition): % of control where 0% means no effect); details: HEK293 ACTOne CNG channel cells, membrane potential fluorescence; activation (PDE inhibition): at 22.9 µM (top of the series)
# Sequence of UniProt Q07343 (Q07343 whole entry, looked up): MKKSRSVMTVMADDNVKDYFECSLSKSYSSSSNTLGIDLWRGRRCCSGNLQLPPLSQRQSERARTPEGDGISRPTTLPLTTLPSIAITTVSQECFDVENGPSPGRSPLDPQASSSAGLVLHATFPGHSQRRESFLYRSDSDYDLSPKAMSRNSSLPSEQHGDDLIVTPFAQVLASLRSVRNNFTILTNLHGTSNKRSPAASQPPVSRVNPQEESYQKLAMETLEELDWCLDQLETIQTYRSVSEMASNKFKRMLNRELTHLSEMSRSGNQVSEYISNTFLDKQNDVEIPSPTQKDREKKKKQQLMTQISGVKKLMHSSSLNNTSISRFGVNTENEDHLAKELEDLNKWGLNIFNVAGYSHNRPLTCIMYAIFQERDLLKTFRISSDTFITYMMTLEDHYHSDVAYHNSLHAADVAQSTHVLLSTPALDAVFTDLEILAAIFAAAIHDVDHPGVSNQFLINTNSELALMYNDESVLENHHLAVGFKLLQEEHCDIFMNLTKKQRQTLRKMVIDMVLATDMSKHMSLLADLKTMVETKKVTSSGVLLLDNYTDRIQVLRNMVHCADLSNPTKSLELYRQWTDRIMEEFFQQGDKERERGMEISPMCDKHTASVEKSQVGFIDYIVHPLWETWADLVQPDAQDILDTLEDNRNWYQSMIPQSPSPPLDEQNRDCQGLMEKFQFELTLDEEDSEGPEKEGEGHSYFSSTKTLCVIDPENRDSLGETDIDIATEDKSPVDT
# Procedure, shortened: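 ACTOne HEK293 cells carry a modified cAMP-gated CNG channel and express endogenous PDE4; plated 1000 cells/well, compounds up to 22.9 uM final. Membrane-potential dye fluorescence (ex 535/em 590) was read; parental cells received 10 uM forskolin + 100 uM RO 20-1724.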
# [4] = molecular target: Ubiquitin carboxyl-terminal hydrolase 1 (Homo sapiens) (UniProt O94782); test: Inhibitors of USP1/UAF1: Pilot qHTS (AID 504865; active means well fitted curve in the direction sought with a large enough effect; inconclusive means small, poorly fitted or top-dose-only effect, or another doubt; inactive means no such curve, though single readings can be large; an effect the other way counts as inactive or inconclusive;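 further: rhodamine fluorescence freed from ubiquitin-rhodamine substrate followed over time; potency means the concentration at half of the fitted maximal effect; nearly all actives have a fitted effect of over 35% in size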); details: purified USP1/UAF1, Ub-rhodamine cleavage fluorescence; series mostly up to 54.9 µM
# Sequence of UniProt O94782 (O94782 whole entry, looked up): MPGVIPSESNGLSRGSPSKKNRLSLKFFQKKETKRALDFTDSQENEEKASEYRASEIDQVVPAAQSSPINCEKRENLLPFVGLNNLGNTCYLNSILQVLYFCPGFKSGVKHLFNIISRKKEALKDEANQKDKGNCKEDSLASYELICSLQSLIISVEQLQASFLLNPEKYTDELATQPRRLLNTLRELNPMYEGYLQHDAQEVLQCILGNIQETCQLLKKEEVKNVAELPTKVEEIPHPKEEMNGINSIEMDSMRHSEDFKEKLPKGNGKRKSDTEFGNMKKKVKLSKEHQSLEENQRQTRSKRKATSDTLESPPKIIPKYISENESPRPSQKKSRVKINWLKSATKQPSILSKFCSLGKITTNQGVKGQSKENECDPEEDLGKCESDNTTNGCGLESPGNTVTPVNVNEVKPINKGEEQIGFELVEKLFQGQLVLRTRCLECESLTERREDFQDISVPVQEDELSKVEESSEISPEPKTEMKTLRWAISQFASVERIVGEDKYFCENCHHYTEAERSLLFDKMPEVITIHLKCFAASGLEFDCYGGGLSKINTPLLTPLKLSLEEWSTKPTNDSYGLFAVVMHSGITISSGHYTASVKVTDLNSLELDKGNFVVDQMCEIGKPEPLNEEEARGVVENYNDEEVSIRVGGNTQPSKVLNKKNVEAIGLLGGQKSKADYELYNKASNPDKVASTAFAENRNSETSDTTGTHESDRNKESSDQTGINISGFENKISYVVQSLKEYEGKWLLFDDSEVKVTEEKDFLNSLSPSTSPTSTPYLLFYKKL
# Procedure, shortened: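 Enzyme-free wells gave the negative control, while test wells held 1nM USP1/UAF1 preincubated with compound for 15 min at room temperature. Ub-Rho at 150nM final started the reaction, and fluorescence at 480/540 nm was recorded kinetically.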
# [5] = Primary qHTS for small molecule stabilizers of the endoplasmic reticulum resident proteome: Secreted ER Calcium Modulated Protein (SERCaMP) assay (AID 1508630; active means well fitted curve in the direction sought with a large enough effect; inconclusive means small, poorly fitted or top-dose-only effect, or another doubt; inactive means no such curve, though single readings can be large; an effect the other way counts as inactive or inconclusive; further: potency means the concentration at half of the fitted maximal effect; on activity change, negative = inhibition: on the % scale 0 is the no-effect control and ±100 the full control effect); details: SH-SY5Y GLuc-SERCaMP (Gaussia luciferase released on ER calcium loss) secretion, thapsigargin, luminescence; activity change, negative = inhibition: at 38.4 µM (top of the series) unless noted
# Procedure, shortened: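 GLuc-SERCaMP-expressing SH-SY5Y cells, pretreated 16 h with compound, are challenged with thapsigargin to empty ER calcium stores; after 4 h, coelenterazine is added directly to the medium and luminescence is imaged.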
# [6] = Stat Signaling Pathway (AID 446); details: ME-180 SIE beta-lactamase reporter, IL-6 stimulated, 5 h; at 7.69 µM (top of the series) unless noted;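 further: ME-180 cervical cancer cells given 40 pM IL-6 alongside compound; SIE-controlled beta-lactamase reporter measured as 460/530 nm FRET emission ratio; top concentration of the series differs between compounds; on the % scale 0 is the no-effect control and ±100 the full control effect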
# Procedure, shortened: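 ME-180 SIE-bla cells; overnight plating; cpd + IL-6 40 pM, 5 h, 37 C; LiveBLAzer 2.5 h RT; 460/530 nm emission ratio. Normalized to 300 pM IL-6 and 125 nM JAK inhibitor controls.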
# [7] = molecular target: Cytochrome P450 2C19 (Homo sapiens) (UniProt P33261); test: qHTS Assay for Inhibitors and Substrates of Cytochrome P450 2C19 (AID 899; active means well fitted curve in the direction sought with a large enough effect; inconclusive means small, poorly fitted or top-dose-only effect, or another doubt; inactive means no such curve, though single readings can be large; an effect the other way counts as inactive or inconclusive; further: potency means the concentration at half of the fitted maximal effect; nearly all actives have a fitted effect of over 60% in size); details: recombinant CYP2C19, luciferin-H EGE luminescence; series mostly up to 57.1 µM
# Sequence of UniProt P33261 (P33261 whole entry, looked up): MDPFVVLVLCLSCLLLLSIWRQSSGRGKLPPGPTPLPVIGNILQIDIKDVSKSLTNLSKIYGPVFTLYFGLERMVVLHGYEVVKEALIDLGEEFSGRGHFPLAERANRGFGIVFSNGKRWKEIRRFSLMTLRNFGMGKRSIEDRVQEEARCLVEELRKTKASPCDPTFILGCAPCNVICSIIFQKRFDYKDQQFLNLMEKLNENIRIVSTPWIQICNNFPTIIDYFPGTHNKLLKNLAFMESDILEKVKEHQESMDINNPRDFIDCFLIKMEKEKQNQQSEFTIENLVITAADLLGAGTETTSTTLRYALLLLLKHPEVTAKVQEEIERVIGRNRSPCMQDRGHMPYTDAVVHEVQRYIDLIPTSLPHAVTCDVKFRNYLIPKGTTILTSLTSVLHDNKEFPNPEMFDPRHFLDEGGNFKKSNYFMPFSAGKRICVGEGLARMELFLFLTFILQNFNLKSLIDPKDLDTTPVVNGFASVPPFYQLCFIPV
# Procedure, shortened: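 5 nM human CYP2C19 with 10uM Luciferin-H EGE (at KM) in 50mM KPO4, compound preincubated 10 min at 37C, then NADPH regeneration for 60 min at 37C. Luciferin read by luminescence after detection reagent; normalized to 57uM ketoconazole as full inhibition.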
# [8] = qHTS Assay for Identification of Small Molecule Agonists for Hypoxia Response Element Signaling Pathway (AID 914; active means well fitted activation curve with a large enough effect in the signal ratio, with a control signal flat, not every such curve was filed as active; inconclusive means small, poorly fitted or top-dose-only effect, or effect the other way, or a change in a side signal; the % refers to the signal ratio; further: potency means the concentration at half of the fitted maximal effect; on activation: top concentration of the series differs between compounds; % of control where 0% means no effect); details: ME-180 (cervical carcinoma) HRE-bla reporter, beta-lactamase ratio, CoCl2, 17 h; activation: hits give high values
# Procedure, shortened: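 Read-out: CCF4 FRET ratio of 460nm to 530nm emission (excitation 405nm) after 2.5 hours at room temperature, taken from HRE-bla ME-180 cells that had been exposed to compound and EC50 CoCl2 for 17 hours.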
# [9] = molecular target: Cytochrome P450 1A2 (Homo sapiens) (UniProt P05177); test: p450-cyp1a2 (AID 410; calls by dose curve; further: potency means the concentration at half of the fitted maximal effect); details: recombinant CYP1A2, luciferin-ME demethylation, luminescence; series mostly up to 57 µM
# Sequence of UniProt P05177 (P05177 whole entry, looked up): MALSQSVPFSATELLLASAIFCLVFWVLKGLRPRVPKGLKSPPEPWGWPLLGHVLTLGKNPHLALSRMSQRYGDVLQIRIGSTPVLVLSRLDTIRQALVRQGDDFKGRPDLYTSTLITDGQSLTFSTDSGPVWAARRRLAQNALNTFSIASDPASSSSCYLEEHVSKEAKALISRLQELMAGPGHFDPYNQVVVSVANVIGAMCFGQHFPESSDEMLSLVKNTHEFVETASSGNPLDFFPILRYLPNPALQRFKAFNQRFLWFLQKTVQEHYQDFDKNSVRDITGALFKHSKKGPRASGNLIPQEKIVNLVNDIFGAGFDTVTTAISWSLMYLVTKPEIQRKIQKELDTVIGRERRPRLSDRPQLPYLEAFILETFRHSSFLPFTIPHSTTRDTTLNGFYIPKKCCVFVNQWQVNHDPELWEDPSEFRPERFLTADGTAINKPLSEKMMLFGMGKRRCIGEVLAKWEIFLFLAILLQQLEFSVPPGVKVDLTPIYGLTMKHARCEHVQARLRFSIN
# Procedure, shortened: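 20nM CYP1A2 with 100uM Luciferin-ME (at Km) in 100mM KPO4; compound preincubated 10 min, NADPH regeneration added, 60 min at room temperature. Luciferin quantified by luminescence after detection reagent; normalized to 57 uM furafylline.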
# [10] = molecular target: Mitogen-activated protein kinase 10 (Mus musculus) (UniProt Q61831); test: JNK3 AlphaScreen Assay (AID 530); details: JNK3 lysate, c-Jun phosphorylation; activity change, negative = inhibition: at 57.1 µM (top of the series);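 further: kinase came from lysate of stimulated human HepG2 cells; signal reports phosphorylation of biotinylated GST-cJun 1-79 at Ser73 with 10 µM ATP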; further: potency means the concentration at half of the fitted maximal effect
# Procedure, shortened: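 Pre-activated (IL-1β/TNFα) JNK3 in HepG2 lysates phosphorylates biotin-GST-cJun(1-79), 10 uM ATP; anti-phospho-cJun(Ser73) AlphaScreen read at room temperature, pH 7.6 Tris buffer. Compounds pre-incubated 15 min as titrations.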
# [11] = molecular target: Cytochrome P450 2C9 (Homo sapiens) (UniProt P11712); test: qHTS Assay for Inhibitors and Substrates of Cytochrome P450 2C9 (AID 883; active means well fitted curve in the direction sought with a large enough effect; inconclusive means small, poorly fitted or top-dose-only effect, or another doubt; inactive means no such curve, though single readings can be large; an effect the other way counts as inactive or inconclusive; further: potency means the concentration at half of the fitted maximal effect; nearly all actives have a fitted effect of over 60% in size); details: recombinant CYP2C9, luciferin-H luminescence, 60 min; series mostly up to 57.1 µM
# Sequence of UniProt P11712 (P11712 whole entry, looked up): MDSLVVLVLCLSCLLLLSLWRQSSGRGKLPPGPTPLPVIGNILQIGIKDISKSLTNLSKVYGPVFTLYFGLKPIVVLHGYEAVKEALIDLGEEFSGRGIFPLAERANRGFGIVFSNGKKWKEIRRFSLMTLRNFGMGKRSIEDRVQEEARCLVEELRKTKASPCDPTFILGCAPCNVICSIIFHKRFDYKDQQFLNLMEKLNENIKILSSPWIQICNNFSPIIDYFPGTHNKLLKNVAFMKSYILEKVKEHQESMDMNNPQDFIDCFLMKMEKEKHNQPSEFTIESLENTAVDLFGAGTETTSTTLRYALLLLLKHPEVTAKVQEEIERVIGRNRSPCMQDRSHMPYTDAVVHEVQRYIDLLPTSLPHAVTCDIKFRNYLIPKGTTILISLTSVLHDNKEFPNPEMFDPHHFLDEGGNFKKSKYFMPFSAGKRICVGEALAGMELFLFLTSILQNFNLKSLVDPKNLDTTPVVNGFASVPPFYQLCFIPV
# Procedure, shortened: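 Human CYP2C9 (10nM) with Luciferin-H at 100uM (its KM) in 25mM KPO4; compound preincubated 10 min at 37C, then NADPH regeneration for 60 min at 37C. Luciferin read by luminescence after detection reagent; normalized to 57uM sulphaphenazole as full inhibition.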
# Tags describe the fitted curve by direction and shape or compound fluorescence and quenching.
smiles,measurement,setting,value
CS(=O)(=O)Nc1cccc(-c2ccc3ncnc(Nc4ccc(F)cc4)c3c2)c1,"activity change, negative = inhibition",[1],inconclusive: -122% [inhibitor]
same,"activity change, negative = inhibition",[2],inconclusive: 52.8% [activator]
same,Potency,[3],"inconclusive [activator, partial curve]"
same,Potency,[4],"inconclusive [inhibitor, partial curve, poor fit]"
same,Potency,[5],inactive
COc1cccc(-c2nc(NCCc3c[nH]c4ccc(OC)cc34)c3ccccc3n2)c1,"activity change, negative = inhibition",[1],inconclusive: -45.7% [inhibitor]
same,"activity change, negative = inhibition",[2],inconclusive: -63.1% [inhibitor]
same,"activity, negative = inhibition",[6],inconclusive: -36.8% [inhibitor]
same,Potency,[3],"inconclusive [activator, full curve, poor fit]"
same,Potency,[7],active: 1.58 µM
same,activation,[8],inconclusive: -27.7%
same,Potency,[4],"inconclusive [inhibitor, partial curve]"
same,Potency,[5],"inconclusive [inhibitor, single point]"
O=C(c1ccncc1)N1CCC2(CCCN(C(c3ccccc3)c3ccccc3)C2)CC1,"activity change, negative = inhibition",[1],inactive: 22.9%
same,"activity change, negative = inhibition",[2],inconclusive: 48.3% [activator]
same,Potency,[5],inactive
CC(=O)NCCNc1nc(-c2ccccc2C(F)(F)F)nc2ccccc12,"activity change, negative = inhibition",[1],inactive: 3.94%
same,Potency,[5],inactive
O=c1c(-c2ccccc2)nc2cnc(N3CCNCC3)nc2n1Cc1ccc(F)cc1,"activity change, negative = inhibition",[1],inconclusive: 172% [activator]
same,"activity change, negative = inhibition",[2],inconclusive: 218% [activator]
same,"activity, negative = inhibition",[6],inconclusive: 193% [activator]
same,Potency,[8],active: 3.16 µM
same,Potency,[5],"inconclusive [inhibitor, partial curve, poor fit]"
COCCn1c(=O)c(-c2cccc(C#N)c2)nc2cnc(N3CCNCC3)nc21,"activity change, negative = inhibition",[1],inconclusive: 38% [activator]
same,Potency,[9],active: 10 µM
same,"activity change, negative = inhibition",[2],inconclusive: 45.8% [activator]
same,"activity, negative = inhibition",[6],inconclusive: 60.4% [activator]
same,Potency,[8],active: 3.16 µM
same,Potency,[5],"inconclusive [inhibitor, single point]"
CC(C)CN1CCCC2(CCN(C(=O)c3cccc(F)c3)CC2)C1,"activity change, negative = inhibition",[1],inactive: -3.93%
same,"activity change, negative = inhibition",[2],inconclusive: -57.8% [inhibitor]
same,Potency,[10],inactive
same,Potency,[5],inactive
COc1cccc(Cn2c(=O)c(-c3cc(F)cc(F)c3)nc3cnc(N4CCNCC4)nc32)c1,"activity change, negative = inhibition",[1],active: 117% [activator]
same,"activity change, negative = inhibition",[2],active: 225% [activator]
same,"activity, negative = inhibition",[6],inconclusive: 300% [activator]
same,Potency,[10],"inconclusive [activator, partial curve]"
same,Potency,[8],"inconclusive [fluorescent, side channel, partial curve]"
same,Potency,[4],"inconclusive [inhibitor, single point]"
same,Potency,[5],"inconclusive [inhibitor, single point]"
O=c1c(-c2cc(F)cc(F)c2)nc2cnc(N3CCNCC3)nc2n1CCc1ccccc1,"activity change, negative = inhibition",[1],inconclusive: 179% [activator]
same,"activity change, negative = inhibition",[2],inconclusive: 244% [activator]
same,"activity, negative = inhibition",[6],inconclusive: 201% [activator]
same,Potency,[10],"inconclusive [activator, single point]"
same,Potency,[8],active: 3.16 µM
same,Potency,[5],"inconclusive [inhibitor, single point]"
CCNc1ncc2nc(-c3ccccc3)c(=O)n(CCc3ccccc3)c2n1,"activity change, negative = inhibition",[1],inconclusive: 76.1% [activator]
same,"activity change, negative = inhibition",[2],inconclusive: 79.2% [activator]
same,"activity, negative = inhibition",[6],inconclusive: 124% [activator]
same,Potency,[3],inactive
same,Potency,[11],"inconclusive [inhibitor, full curve]"
same,Potency,[8],active: 1.58 µM
same,Potency,[5],inactive
CN1CCN(c2ncc3nc(-c4ccccc4)c(=O)n(CCC#N)c3n2)CC1,"activity change, negative = inhibition",[1],inconclusive: 72.4% [activator]
same,"activity change, negative = inhibition",[2],inconclusive: 90% [activator]
same,"activity, negative = inhibition",[6],inconclusive: 86% [activator]
same,Potency,[3],inactive
same,Potency,[8],active: 3.16 µM
same,Potency,[5],"inconclusive [inhibitor, single point]"
CN(C)Cc1ccccc1-c1cc(NCc2cccs2)ncn1,"activity change, negative = inhibition",[1],inactive: 9.46%
same,"activity change, negative = inhibition",[2],inconclusive: -39.8% [inhibitor]
same,"activity, negative = inhibition",[6],inactive: 1.42%
same,Potency,[5],"inconclusive [inhibitor, partial curve, poor fit]"
COc1ccc(NC(=O)N2CC[C@@]3(CCCN(C(=O)c4ccncc4)C3)C2)cc1,"activity change, negative = inhibition",[1],inactive: -25.1%
same,"activity change, negative = inhibition",[2],inactive: 16.8%
same,Potency,[10],inactive
same,Potency,[3],inactive
same,Potency,[5],inactive
COc1ccccc1CN1CCC2(CC1)CCN(S(C)(=O)=O)CC2,"activity change, negative = inhibition",[1],inconclusive: 10.8% [activator]
same,Potency,[5],inactive
